# This is one part of the list. The list includes weakly bound sequences.
# Target: MaxL homodimer (UniProt P61244)
# Assay: universal protein-binding microarray (PBM)
# Conditions: PBS-based mixture, 10 nM His-tagged protein dimer, 2% milk, 200 ng/uL BSA, 50 ng/uL salmon testes DNA, 0.02% TX-100; detection with Alexa 488 anti-His …; high values mean tight binding; most listed sequences are background and not binding sites; double strand, one strand shown
# Sequence of UniProt P61244 (P61244 whole entry): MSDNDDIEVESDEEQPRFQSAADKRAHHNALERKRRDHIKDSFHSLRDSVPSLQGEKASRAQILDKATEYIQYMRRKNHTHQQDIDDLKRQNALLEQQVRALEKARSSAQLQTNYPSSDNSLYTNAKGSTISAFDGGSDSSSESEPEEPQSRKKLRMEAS
row,Sequence,binding signal (normalized occupancy)
1,ACACCAGA,0.0822
2,AGCTGAAG,0.0723
3,GCTCGCAA,0.0734
4,CGATAGTC,0.0725
5,CTTATTAC,0.0796
6,AGAAAAAC,0.0758
7,AGTCAAGG,0.074
8,CCAGGCGC,0.0763
9,GTATGAAC,0.0809
10,GGTGCACC,0.0777
11,ACTTCTGA,0.073
12,CGGCGATA,0.0715
13,GGATGCTA,0.0763
14,ACGGACTC,0.0707
15,ACCTCGGA,0.0702
16,AAGGGGCG,0.0757
17,ATTACAGG,0.0787
18,TTATAGAA,0.0824
19,ACCCATCG,0.0773
20,CCGAAGTC,0.0667
21,AAGGCTGG,0.0666
22,GAGCGGCA,0.0714
23,TACACCGA,0.0797
24,AGAAGTGC,0.0758
25,CCGCGAGA,0.0721

row,Sequence,binding signal (normalized occupancy)
1,GGAACTCC,0.068
2,CTAGCTTC,0.0694
3,ATTACCAA,0.0717
4,AGGACATA,0.0758
5,TCGCTTAA,0.077
6,CCGTCTTC,0.0665
7,CGCTGCGC,0.0689
8,ACAACTTG,0.0751
9,CTCCCCGA,0.0706
10,ACCAATAG,0.0687
11,CACAACTG,0.075
12,AACGGCGA,0.0682
13,CGTTCTCA,0.0801
14,AAACATAA,0.0846
15,GCAAGGAC,0.0681
16,TACGCCGA,0.0717
17,GACGTTCC,0.0707
18,CCTCTGCG,0.0717
19,GTAGCGTA,0.0735
20,AGTAGATA,0.0825
21,CGCGATGC,0.0665
22,AATTTCCT,0.0744
23,CCCTGAAA,0.0743
24,AAATGTAG,0.0793
25,AAACATCG,0.0768

row,Sequence,binding signal (normalized occupancy)
1,AATCTTAA,0.0767
2,CCCACCGC,0.0756
3,CGATAGAC,0.0779
4,AAGAGTCT,0.0691
5,TCCCTAGA,0.0729
6,ACGGAACG,0.0782
7,GCATGCGA,0.119
8,CGAAATTC,0.0746
9,CACGTTGG,0.122
10,AGCCAGTA,0.072
11,GATGTGCA,0.0814
12,ATGAGCTC,0.0798
13,ACCGTAGG,0.066
14,ACCTTCCC,0.0759
15,ATGCCGAC,0.078
16,AGCAATAT,0.0739
17,AGCGGTGG,0.0699
18,AATCTTGC,0.0679
19,TCACAGCA,0.0833
20,CTTAGATA,0.0789
21,AGGCCGCA,0.0762
22,CGATGTCC,0.0724
23,CCCGCGAC,0.0695
24,CGAGTCGC,0.0662
25,CGCCTACC,0.0768

row,Sequence,binding signal (normalized occupancy)
1,AGTTGATA,0.074
2,AATCCGTA,0.0755
3,GTCTAGAA,0.0731
4,ACAGGCGC,0.0764
5,TAGGACGA,0.0723
6,CAATGTAC,0.0801
7,CATCCATA,0.0837
8,AAGTCATA,0.0841
9,GAATAAAC,0.0771
10,CGGTCGCA,0.07
11,CATGGAAG,0.0853
12,CATGAGGA,0.106
13,CAGCGATA,0.0716
14,ACGGTAAC,0.0756
15,CACAGTGG,0.0743
16,CCCATCTA,0.0745
17,AGCGGGTG,0.0755
18,ACAGCGAC,0.0721
19,GGTGAACA,0.0743
20,AATAAAAA,0.0751
21,ATTGATTG,0.0769
22,GTTATCAA,0.0808
23,ACTCGACT,0.0722
24,CTGTAAAG,0.0694
25,CTTTCCAA,0.0733

row,Sequence,binding signal (normalized occupancy)
1,GAGGTCAC,0.0768
2,AGACAACT,0.0749
3,AACACGCG,0.12
4,GTGGAACA,0.0771
5,ACACAGGA,0.0789
6,TGGTGCAA,0.0791
7,AGTGTGTC,0.0772
8,ACATAAGT,0.0755
9,GAGTGTCA,0.0746
10,AGTGCAAG,0.0719
11,ACGGCCCT,0.0702
12,CCAGCTCA,0.0708
13,TTAGAGAA,0.0743
14,CTCTCTGC,0.0705
15,GATGCCCC,0.0764
16,GCCCGCTA,0.0689
17,AACTTACC,0.0716
18,GTTGTAAA,0.0725
19,AGTCGCTA,0.0684
20,CCCGCATA,0.0795
21,CGGACCGA,0.0634
22,CTGCCCCC,0.0797
23,AAGCAGGG,0.0711
24,GCCCTATA,0.0758
25,CTTTTTTC,0.0695

row,Sequence,binding signal (normalized occupancy)
1,CGCGGTCC,0.0706
2,GTAAATAA,0.073
3,ATCGGATC,0.0727
4,ATCAATTG,0.0745
5,CCGCGTGA,0.142
6,AGCACCAG,0.0742
7,AAATGAAG,0.076
8,ACTTTGCT,0.0703
9,AATTCCTG,0.0731
10,CGGTGGGC,0.0662
11,CTCCGTGA,0.0702
12,GATGCAGA,0.0753
13,ACGGAAAA,0.0709
14,AAAGCGGT,0.0664
15,AGGTGTCG,0.0793
16,AAAGTGAA,0.0782
17,CACTCGAG,0.0674
18,ACCTGGGA,0.0845
19,AGGGAGAC,0.0735
20,CCGTAGGC,0.0676
21,GTGAGGCA,0.0786
22,CTGGGAGC,0.0721
23,CGGACTCA,0.0765
24,ACCACGCA,0.0954
25,GCTCCGGA,0.0721

row,Sequence,binding signal (normalized occupancy)
1,ATACCGGG,0.0762
2,GCCTACGA,0.0712
3,TCGAAGAA,0.0729
4,AGGGGCTA,0.0762
5,AACCAACG,0.0845
6,ACAGGTTG,0.0821
7,GAGTTGAC,0.0734
8,CCGCTGCG,0.0704
9,CATTACGA,0.0804
10,CGTAGGGC,0.0702
11,GGGTCGAA,0.068
12,GTTGCCAA,0.0738
13,CGCTATAA,0.0784
14,CCTGATAG,0.0743
15,AAGCGGGA,0.0677
16,GAAATAGC,0.0789
17,AACGAGTT,0.0732
18,ATGCTAAG,0.0771
19,CCACGCCA,0.0991
20,GAGGCGTA,0.0709
21,GGAGGTGA,0.0733
22,CAACGCTG,0.0769
23,CCATTACG,0.0805
24,CACACTAA,0.0788
25,CCAAGCCA,0.0769

row,Sequence,binding signal (normalized occupancy)
1,AACTGATT,0.075
2,AATACCAG,0.0778
3,CAGGCCAC,0.0781
4,TATGTAAA,0.0793
5,AGGCATTC,0.0762
6,TGTCAGAA,0.0757
7,AGGGCCCC,0.0712
8,CCCCCCAC,0.0873
9,GAGCTGCA,0.0701
10,TGAGTACA,0.0768
11,ACGCGATG,0.0798
12,CCCGGCCA,0.0681
13,CAAAGGAG,0.0723
14,ACACCGTG,0.09
15,GAGGAGCA,0.0788
16,CGCACTAG,0.074
17,TGTGTTAA,0.0788
18,TGGAGCAA,0.072
19,ACACTGAA,0.0733
20,ACGGACCA,0.0743
21,ATACGGCG,0.0761
22,AGAGCGGG,0.0675
23,TAGAAATA,0.0757
24,GATGGATA,0.0809
25,GCCAGGTA,0.0735

row,Sequence,binding signal (normalized occupancy)
1,CTCTCCAG,0.0675
2,TGTGGAAA,0.0869
3,ACCAGACA,0.0776
4,AAGTACTT,0.0682
5,CATTCCAA,0.0723
6,CCCGGAGG,0.0678
7,AGGAGCTG,0.0685
8,CATTTACG,0.0793
9,CGGAGACG,0.0734
10,CTTACTGC,0.0708
11,CGTTCCTC,0.075
12,ATCAGGGC,0.0698
13,GCACAGGA,0.0705
14,GCTTAGCA,0.0731
15,TCCTCCAA,0.0748
16,AACCCCGG,0.0708
17,ATGGCGAC,0.0755
18,CAGGTTTA,0.0705
19,AGACGGCT,0.068
20,ATTCCCAC,0.0864
21,ACAAGACA,0.0713
22,AGTTCCAC,0.076
23,CCCTCTGA,0.073
24,CGGGTTGA,0.0697
25,CGCCTAAA,0.0685

row,Sequence,binding signal (normalized occupancy)
1,CACGGGGA,0.0894
2,TCAGCCAA,0.0752
3,CTTGAGAC,0.0756
4,AACCCCGC,0.0783
5,ATAACTGG,0.0736
6,TGAGCGCA,0.0802
7,CAAACTTG,0.0675
8,ACTGCTAA,0.0693
9,CTACTTCA,0.0722
10,AGTAGTTA,0.0804
11,ACATGTAG,0.101
12,CAAATCTA,0.0804
13,GTACCAAA,0.0692
14,GACGCGGA,0.0667
15,CCACAAGC,0.072
16,GCGACTCA,0.0767
17,TTATATAA,0.0746
18,ATTGCGAC,0.078
19,AAGTACCC,0.077
20,CCTACCCC,0.0761
21,ATGAATAC,0.0799
22,CTACCCAC,0.0773
23,AGCACCGC,0.0688
24,CTCGGGAA,0.0681
25,AACAGCCT,0.0732

row,Sequence,binding signal (normalized occupancy)
1,CGACGCCA,0.0755
2,CATAGCTC,0.0713
3,AGCCAATC,0.0758
4,ATTTTTTG,0.0746
5,CGAACGAA,0.0711
6,CACGTAGC,0.0822
7,AGGTTTGG,0.0667
8,ACAGGTTC,0.0753
9,CGACAGGC,0.0693
10,CGTTCGCC,0.072
11,CCCCACCG,0.0782
12,CCCCCATA,0.0868
13,GACTCCAC,0.0754
14,ATTAAGTG,0.0783
15,TGCGTCAA,0.0802
16,GATCCTAC,0.0762
17,ATAGATAA,0.0808
18,ATATACGG,0.0825
19,ATCTCACA,0.0818
20,CAGACCCA,0.0756
21,CTCACGAC,0.0766
22,AGTCAGGC,0.0722
23,AGAATATG,0.0863
24,CTGCGCAG,0.0641
25,GATACACA,0.0822

row,Sequence,binding signal (normalized occupancy)
1,AAGCGCGT,0.0758
2,AGTTGGTG,0.0727
3,GACTCAGC,0.0719
4,GTCCGAAA,0.0714
5,GAGAATAC,0.0816
6,GCGCCCCC,0.0716
7,GATCGTGC,0.08
8,CAAGACTG,0.0721
9,AGCAGGTC,0.0719
10,ACGACTGA,0.0718
11,CACGGCCC,0.0709
12,GTCCTTTA,0.073
13,TGGTCCAA,0.0755
14,CTGGATCA,0.0773
15,ATTAATAC,0.0792
16,AAGCGCTG,0.067
17,CGCTTGCA,0.074
18,CATTCACG,0.0812
19,GTCTGGTA,0.0743
20,AATAAGCA,0.0801
21,ATGATAAC,0.0796
22,CACGCCGG,0.0882
23,AAGGAAAG,0.0804
24,GGCGGTAC,0.0699
25,GGAGTGTA,0.0733

row,Sequence,binding signal (normalized occupancy)
1,CCCATGGA,0.0846
2,GATGTCCC,0.0747
3,CTCCGCAA,0.0684
4,CCTGCCCA,0.0792
5,AGATGATC,0.0785
6,ACAGCCGA,0.0725
7,CGCTTTGA,0.0709
8,ATTCATTC,0.0851
9,TATTACGA,0.0849
10,AGGAGTAA,0.0761
11,TACTGGCA,0.0815
12,TAGCGCAA,0.0697
13,GAGATGCA,0.0753
14,CAGATCCA,0.0767
15,CCTATCAG,0.0766
16,CGCTACTC,0.069
17,ATCATAAG,0.0883
18,ATGTCTTG,0.0821
19,ACTGACTC,0.0732
20,AAATAGAG,0.0769
21,AAACCGGA,0.0684
22,CGCGAAAC,0.0759
23,CCCCATTC,0.0826
24,CGGTCAAG,0.0698
25,ATTCAGTG,0.0726

row,Sequence,binding signal (normalized occupancy)
1,CCTGCTGC,0.0723
2,TGTACTAA,0.074
3,AAGCACAT,0.0917
4,ACCGGATA,0.0794
5,CAGAGTCC,0.0713
6,TAGAGTGA,0.0703
7,CATACGTC,0.0802
8,AAGACAAC,0.0774
9,ACCTTAGG,0.0754
10,ATCCGGAG,0.0746
11,GGATAACC,0.077
12,ATCCTTCA,0.089
13,AGAAGTGG,0.0765
14,CTCGTTGC,0.0774
15,ACAGTCAT,0.0791
16,CCCCGCGG,0.0745
17,AATCAGCT,0.073
18,ACTATCCT,0.0757
19,GAATGAGC,0.0771

# Reference: article PMC4242493
